Reference: the supplement of paper PMC8728848
Some of the results follow.

What was measured:
Experiment in all cases: glycan array binding signal (z-score within array); higher = stronger binding
Settings in all cases: glycan notation: IUPAC condensed, linker removed
Fuc(a1-2)Gal = target: Fuc(a1-2)Gal
Procedure, shortened: (§1)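 Glycan array binding is given as a within-array Z-score, which can be read as non-binding when negative. The arrays, 3228 of them, came from the Consortium for Functional Glycomics database and were retained only where the protein sequence was available. Z-scores were averaged across arrays of the same protein sequence at different concentrations or buffers and across linkers.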

Fuc(a1-2)Gal(b1-3)GalNAc = target: Fuc(a1-2)Gal(b1-3)GalNAc
Procedure, shortened: as §1

[1] = target: Fuc(a1-2)Gal(b1-3)GalNAc(a1-3)[Fuc(a1-2)]Gal(b1-4)Glc
Procedure, shortened: as §1

[2] = target: Fuc(a1-2)Gal(b1-3)GalNAc(a1-3)[Fuc(a1-2)]Gal(b1-4)GlcNAc
Procedure, shortened: as §1

[3] = target: Fuc(a1-2)Gal(b1-3)GalNAc(b1-3)Gal
Procedure, shortened: as §1

[4] = target: Fuc(a1-2)Gal(b1-3)GalNAc(b1-3)Gal(a1-4)Gal(b1-4)Glc
Procedure, shortened: as §1

[5] = target: Fuc(a1-2)Gal(b1-3)GalNAc(b1-4)[Neu5Ac(a2-3)]Gal(b1-4)Glc
Procedure, shortened: as §1

Fuc(a1-2)Gal(b1-3)GlcNAc = target: Fuc(a1-2)Gal(b1-3)GlcNAc
Procedure, shortened: as §1

[6] = target: Fuc(a1-2)Gal(b1-3)GlcNAc(b1-2)Man(a1-3)[Fuc(a1-2)Gal(b1-3)GlcNAc(b1-2)Man(a1-6)]Man(b1-4)GlcNAc(b1-4)GlcNAc
Procedure, shortened: as §1

[7] = target: Fuc(a1-2)Gal(b1-3)GlcNAc(b1-2)Man(a1-3)[Fuc(a1-2)Gal(b1-3)GlcNAc(b1-2)Man(a1-6)]Man(b1-4)GlcNAc(b1-4)[Fuc(a1-6)]GlcNAc
Procedure, shortened: as §1

[8] = target: Fuc(a1-2)Gal(b1-3)GlcNAc(b1-3)Gal(b1-4)Glc
Procedure, shortened: as §1

[9] = target: Fuc(a1-2)Gal(b1-3)GlcNAc(b1-3)GalNAc
Procedure, shortened: as §1

[10] = target: Fuc(a1-2)Gal(b1-3)GlcNAc(b1-3)[Fuc(a1-2)Gal(b1-3)GlcNAc(b1-6)]GalNAc
Procedure, shortened: as §1

[11] = target: Fuc(a1-2)Gal(b1-3)GlcNAc(b1-3)[Gal(b1-4)GlcNAc(b1-6)]Gal(b1-4)Glc
Procedure, shortened: as §1

[12] = target: Fuc(a1-2)Gal(b1-3)GlcNAc(b1-3)[Neu5Ac(a2-6)Gal(b1-4)GlcNAc(b1-6)]Gal(b1-4)Glc
Procedure, shortened: as §1

[13] = target: Fuc(a1-2)Gal(b1-3)GlcNAc6S
Procedure, shortened: as §1

[14] = target: Fuc(a1-2)Gal(b1-3)[Fuc(a1-4)]GlcNAc
Procedure, shortened: as §1

[15] = target: Fuc(a1-2)Gal(b1-3)[Fuc(a1-4)]GlcNAc(b1-2)Man(a1-3)[Fuc(a1-2)Gal(b1-3)[Fuc(a1-4)]GlcNAc(b1-2)Man(a1-3)]Man(b1-4)GlcNAc(b1-4)GlcNAc
Procedure, shortened: as §1

[16] = target: Fuc(a1-2)Gal(b1-3)[Fuc(a1-4)]GlcNAc(b1-2)Man(a1-3)[Fuc(a1-2)Gal(b1-3)[Fuc(a1-4)]GlcNAc(b1-2)Man(a1-6)]Man(b1-4)GlcNAc(b1-4)[Fuc(a1-6)]GlcNAc(b1-4)[Fuc(a1-6)]GlcNAc
Procedure, shortened: as §1

[17] = target: Fuc(a1-2)Gal(b1-3)[Fuc(a1-4)]GlcNAc(b1-3)[Fuc(a1-3)[Gal(b1-4)]GlcNAc(b1-6)]Gal(b1-4)Glc
Procedure, shortened: as §1

[18] = target: Fuc(a1-2)Gal(b1-3)[Fuc(a1-4)]GlcNAc(b1-3)[Gal(b1-4)GlcNAc(b1-6)]Gal(b1-4)Glc
Procedure, shortened: as §1

[19] = target: Fuc(a1-2)Gal(b1-4)Fuc(a1-3)]GlcNAc(b1-2)Man(a1-3)[Fuc(a1-2)Gal(b1-4)[Fuc(a1-3)]GlcNAc(b1-2)Man(a1-6)]Man(b1-4)GlcNAc(b1-4)GlcNAc
Procedure, shortened: as §1

Fuc(a1-2)Gal(b1-4)Glc = target: Fuc(a1-2)Gal(b1-4)Glc
Procedure, shortened: as §1

Fuc(a1-2)Gal(b1-4)Glc6S = target: Fuc(a1-2)Gal(b1-4)Glc6S
Procedure, shortened: as §1

Fuc(a1-2)Gal(b1-4)GlcNAc = target: Fuc(a1-2)Gal(b1-4)GlcNAc
Procedure, shortened: as §1

[20] = target: Fuc(a1-2)Gal(b1-4)GlcNAc(b1-2)Man
Procedure, shortened: as §1

[21] = target: Fuc(a1-2)Gal(b1-4)GlcNAc(b1-2)Man(a1-3)[Fuc(a1-2)Gal(b1-4)GlcNAc(b1-2)Man(a1-6)]Man(b1-4)GlcNAc(b1-4)GlcNAc
Procedure, shortened: as §1

[22] = target: Fuc(a1-2)Gal(b1-4)GlcNAc(b1-2)Man(a1-3)[Fuc(a1-2)Gal(b1-4)GlcNAc(b1-2)Man(a1-6)]Man(b1-4)GlcNAc(b1-4)[Fuc(a1-6)]GlcNAc
Procedure, shortened: as §1

[23] = target: Fuc(a1-2)Gal(b1-4)GlcNAc(b1-2)[Fuc(a1-2)Gal(b1-4)GlcNAc(b1-4)]Man(a1-3)[Fuc(a1-2)Gal(b1-4)GlcNAc(b1-2)Man(a1-6)]Man(b1-4)GlcNAc(b1-4)GlcNAc
Procedure, shortened: as §1

[24] = target: Fuc(a1-2)Gal(b1-4)GlcNAc(b1-3)Gal(b1-4)GlcNAc
Procedure, shortened: as §1

B1: LFA (Limax flavus) (protein)
chain: MSVLFLAASFLLLASFELVAAQGCPRQDPGDWIVIQRRLNADVNFYRGWADYKHGFGDLRCNFWLGNEKIHQLTSHGRYKLRVEFTFNNKSYFAEYSTFKILGEADKYKLQVGGYSGNAGDALTFHNGMAFSTNDRDNDADSIDCAKVYHGAWWYKTCHESNLNGKWGSKKYGEGLNWKAKTTFTATATSSLLKIKALK
glycan array binding signal (z-score) (Fuc(a1-2)Gal): -0.242
glycan array binding signal (z-score) (Fuc(a1-2)Gal(b1-3)GalNAc): -0.289
glycan array binding signal (z-score) [1]: -0.216
glycan array binding signal (z-score) [2]: -0.211
glycan array binding signal (z-score) [3]: 0.278
glycan array binding signal (z-score) [4]: -0.304
glycan array binding signal (z-score) [5]: 0.072
glycan array binding signal (z-score) (Fuc(a1-2)Gal(b1-3)GlcNAc): -0.302
glycan array binding signal (z-score) [6]: 0.702
glycan array binding signal (z-score) [7]: -0.033
glycan array binding signal (z-score) [8]: -0.177
glycan array binding signal (z-score) [9]: -0.347
glycan array binding signal (z-score) [10]: -0.22
glycan array binding signal (z-score) [11]: -0.37
glycan array binding signal (z-score) [12]: -0.319
glycan array binding signal (z-score) [13]: -0.167
glycan array binding signal (z-score) [14]: -0.313
glycan array binding signal (z-score) [15]: 0.682
glycan array binding signal (z-score) [16]: -0.337
glycan array binding signal (z-score) [17]: -0.134
glycan array binding signal (z-score) [18]: -0.345
glycan array binding signal (z-score) [19]: 1.54
glycan array binding signal (z-score) (Fuc(a1-2)Gal(b1-4)Glc): -0.315
glycan array binding signal (z-score) (Fuc(a1-2)Gal(b1-4)Glc6S): -0.296
glycan array binding signal (z-score) (Fuc(a1-2)Gal(b1-4)GlcNAc): -0.285
glycan array binding signal (z-score) [20]: -0.352
glycan array binding signal (z-score) [21]: 0.771
glycan array binding signal (z-score) [22]: 0.6
glycan array binding signal (z-score) [23]: 0.009
glycan array binding signal (z-score) [24]: -0.293
